Measured values: the supplement of paper PMC12217912
This is one part of the list. Sequences were assembled here from the parent chain. Values near 0.05 are background.

B1: TEV protease; numbered along this chain (parent)
chain: MGESLFKGPRDYNPISSSICHLTNESDGHTTSLYGIGFGPFIITNKHLFRRNNGTLVVQSLHGVFKVKDTTTLQQHLVDGRDMIIIRMPKDFPPFPQKLKFREPQREERICLVTTNFQTKSMSSMVSDTSCTFPSGDGIFWKHWIQTKDGQCGSPLVSTRDGFIVGIHSASNFTNTNNYFTSVPKNFMELLTNQEAQQWVSGWRLNADSVLWGGHKVFMVKPEEPFQPVKEATQL

Variants of: B1
Assay: raw area under fraction-flipped curve 0-4 h after induction (AUC4h, not background-subtracted), DNA-recorder readout of cleavage of the substrate (dimensionless); higher = more cleavage of the substrate by the protease variant
Conditions: temperature: 34 °C; time window: 0-4 h after rhamnose induction
Procedure: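 In vivo DNA recorder in E. coli TOP10(DE3) ΔrhaA at 34 °C. Each TEVp single-site mutant (parent TEVp 0) is paired with a single-site variant of the 7-mer TEVs (canonical ENLYFQ|S). The substrate sits between flexible linkers in a Bxb1-sfGFP-TEVs-SsrA fusion, so cleavage stabilises Bxb1 and speeds flipping of a recombination array, read by NGS. The value is the raw area under the fraction-flipped curve over 0-4 h after rhamnose induction (AUC4h), with ≥20 reads per time point. It is not background-subtracted; inactive controls average about 0.047.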
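Note: Bxb1 expression induced with 0.2% (w/v) L-rhamnose at OD600 near 0.5, cultures sampled hourly, flipped fraction per protease–substrate barcode pair counted by paired-end Illumina sequencing.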

Variant	area with substrate ENLEFQS	area with substrate ENLFFQS	area with substrate ENLHFQS	area with substrate ENLKFQS	area with substrate ENLLFQS	area with substrate ENLNFQS	area with substrate ENLPFQS	area with substrate ENLQFQS	area with substrate ENLRFQS	area with substrate ENLSFQS	area with substrate ENLVFQS	area with substrate ENLWFQS	area with substrate ENLDFQS	area with substrate ENLIFQS	area with substrate ENLMFQS	area with substrate ENLTFQS	area with substrate ENLCFQS	area with substrate ENLGFQS
Q151M	0.0503	0.0757	0.0751	0.0485	0.0811	0.0483	0.0637	0.0683	0.0252	0.0791	0.0886	0.051	–	–	–	–	–	–
R10M	0.0708	0.0891	0.0751	0.0729	–	0.0483	–	–	0.0669	0.0792	–	0.057	0.0578	0.0808	0.0745	–	–	–
S169W	0.0665	0.061	–	0.0556	–	0.0589	0.0646	–	–	–	–	0.0676	0.0562	0.0634	–	0.0641	–	–
V165R	0.0461	0.0632	0.0557	0.0553	0.0539	0.0575	0.0493	0.0463	–	–	0.065	0.0536	0.0562	0.0518	–	–	0.0614	0.0604
V165T	0.0509	0.0509	0.0597	0.0691	–	0.0599	–	0.0534	0.0673	0.0393	0.0634	0.0553	0.0671	0.0665	–	–	0.063	–
V229F	0.0739	0.106	0.059	0.0677	0.0658	0.0675	0.0486	0.0739	0.0705	0.0698	–	–	0.0685	–	–	–	0.0837	0.044
Q197D	–	0.0931	0.0643	0.0701	0.0723	0.0714	0.0692	0.0571	–	0.0646	–	–	0.0577	0.0703	–	–	–	0.0647
L61H	–	0.102	0.0682	0.0734	–	0.0795	0.0653	0.0599	–	0.0778	0.0966	–	0.0593	–	0.0765	0.0746	–	–
S124P	0.0502	0.0864	0.0659	–	0.0804	0.0675	0.0767	0.0632	0.0829	0.0787	–	–	0.0538	0.0819	–	–	–	–
F65L	0.063	0.0859	–	–	–	0.0602	–	0.0476	0.0713	–	–	–	0.065	0.0691	–	–	–	–
K185G	0.0635	0.123	0.0741	0.0762	0.102	0.0602	0.0412	0.0965	–	–	–	0.066	0.0605	0.107	–	–	–	0.0676
W141A	0.0665	0.0668	0.061	0.0633	0.0344	0.0591	0.0575	0.0591	0.0552	0.0616	0.0604	0.0567	0.0476	–	–	–	–	–
Q227L	0.0607	0.0836	–	0.0809	–	0.0605	0.066	0.0652	0.066	0.0598	–	0.0642	0.0519	0.0594	–	–	0.0626	–
M88A	0.105	0.0706	–	0.0758	0.0795	0.0623	0.0572	–	–	0.0543	0.0882	0.0337	0.0524	–	0.0669	–	–	–
L190M	0.0674	–	0.011	0.0794	–	0.0657	0.0645	0.0683	–	–	0.0809	0.0663	0.0636	–	–	–	0.0834	0.0678
R204F	0.0622	0.0937	0.0658	0.0767	0.0972	0.0571	0.0556	0.0736	0.0707	0.0903	–	0.0578	0.0702	0.0898	0.0824	0.087	0.0803	0.0638
E223K	0.0585	0.0963	0.065	0.069	0.068	0.0654	0.054	0.056	0.0578	0.0587	–	0.0729	0.0608	–	0.0678	–	0.0711	–
P134G	0.059	0.0753	–	0.0718	0.0388	–	0.0594	0.0312	0.0478	–	–	–	0.0569	0.0628	0.0425	–	–	0.028
S127K	–	0.0327	0.0754	–	–	0.0553	–	–	0.0739	–	0.133	0.0695	–	–	–	–	–	0.0408
N116S	0.0648	–	0.0663	0.075	–	0.0673	0.0754	–	0.0772	0.0673	–	–	0.0727	–	–	–	–	–
R50H	0.0467	–	0.0768	0.0536	0.0968	–	0.0599	0.0442	0.052	–	–	–	–	–	–	–	–	0.0762
Q234N	0.0683	0.0677	0.0661	0.0725	–	0.0696	0.0626	0.0757	0.0823	0.0655	0.093	0.0727	0.0622	0.0711	0.0893	0.0771	–	–
I167A	–	0.043	0.0525	–	–	0.0594	0.0549	0.0535	–	–	0.0575	0.0461	0.0683	0.0558	0.0385	–	–	–
E231C	0.0686	0.0902	–	0.0916	–	–	0.0598	–	0.0769	0.0651	0.0559	–	0.0604	–	–	–	0.0589	–
F38I	0.0552	–	–	–	0.0728	–	0.0649	0.0468	–	–	–	–	0.0703	0.0775	–	–	–	–
K230D	0.0659	0.0864	0.0793	0.0833	0.0774	–	0.0618	0.0677	0.0764	0.0616	–	0.0782	0.0633	0.0834	0.0712	–	0.0766	–

Variant	area with substrate ENLEFQS	area with substrate ENLFFQS	area with substrate ENLHFQS	area with substrate ENLKFQS	area with substrate ENLLFQS	area with substrate ENLNFQS	area with substrate ENLPFQS	area with substrate ENLQFQS	area with substrate ENLRFQS	area with substrate ENLSFQS	area with substrate ENLVFQS	area with substrate ENLWFQS	area with substrate ENLDFQS	area with substrate ENLIFQS	area with substrate ENLMFQS	area with substrate ENLTFQS	area with substrate ENLCFQS	area with substrate ENLGFQS
K230C	0.0363	0.0767	–	0.0705	0.0534	0.0809	0.0673	0.0703	–	–	0.0972	0.0612	0.0649	0.0791	0.0674	–	0.0966	–
K148R	–	–	–	0.089	–	0.051	–	–	–	0.0656	–	–	0.0582	–	0.0719	–	–	–
K148Q	0.0768	0.0714	–	0.0838	0.0767	0.0608	0.103	–	0.0747	0.0712	0.0876	–	0.0609	0.0909	0.0757	–	–	–
L22E	0.0445	0.0467	0.0455	0.047	0.0593	0.0488	0.0362	0.0561	0.0442	0.0438	0.05	0.0405	0.0471	0.0506	–	0.0286	–	–
G162P	0.0417	0.0458	0.0524	0.0783	0.0507	0.0551	0.0586	–	0.0529	0.0401	–	0.0427	0.0541	–	0.0742	–	–	0.0551
G166M	0.0322	0.036	0.0469	0.0487	–	–	0.0425	0.0848	0.049	0.035	0.025	0.0546	0.053	0.0632	0.0499	–	–	–
G166A	0.0467	0.0682	0.0458	0.0579	0.0488	0.0616	0.0652	–	0.0524	0.0468	0.0406	–	0.0531	0.0728	–	–	0.0488	–
F226M	0.0582	0.0875	0.0735	0.0801	–	0.0611	–	–	0.0669	0.0741	–	–	0.0604	–	–	–	0.058	–
L191K	0.0389	0.0645	0.0483	0.0565	0.0568	0.0469	0.0568	0.0572	0.0515	0.0588	0.0516	0.059	0.0562	0.0601	0.0556	0.0685	–	–
H47C	0.0603	0.0841	0.0584	–	–	0.0663	0.0538	0.0588	0.061	0.075	0.0471	–	0.0584	–	0.0628	–	–	–
V157S	0.0626	0.0626	0.0367	–	–	0.0561	0.0523	0.0569	0.0666	0.0433	–	0.0492	0.0584	0.0697	0.0605	–	–	0.0784
T71E	–	0.0926	0.0685	0.0699	0.0678	0.0686	–	0.0716	0.108	0.0606	–	–	0.0669	0.0539	–	–	–	0.0658
N177L	0.072	0.0865	0.0666	0.0836	–	0.0619	0.0717	0.0665	–	0.0526	0.0941	–	0.0612	0.0972	0.0294	0.0727	0.0633	0.0505
N177S	0.052	0.0671	0.0476	0.0657	0.0607	0.0456	0.0551	0.049	0.0536	0.0562	–	0.0476	0.0552	0.0683	–	–	0.0636	0.0622
I36W	0.075	0.0671	0.0702	0.0627	0.0682	0.0622	0.0534	0.0625	0.0653	0.0488	0.072	0.0694	–	–	0.0639	0.0564	–	0.0727
E3Q	0.0684	0.0894	0.0587	0.0581	–	0.0491	0.08	0.0659	0.0638	–	–	–	0.0548	0.123	–	–	–	0.0631
T30L	0.0478	0.0666	0.0826	0.0736	0.0792	0.0741	0.0685	–	0.0743	0.0621	–	0.0647	0.073	0.14	–	–	–	–
H215C	0.0789	–	–	–	–	–	0.0618	–	–	0.0541	–	0.0492	0.0656	0.0635	–	–	0.0652	0.0591
Q146K	0.0609	0.074	–	0.0741	0.0788	0.0695	0.067	0.0669	0.0765	0.0765	–	0.0652	0.0622	–	0.0811	0.0744	–	0.0691
P222F	0.0627	0.075	0.0656	0.067	0.077	0.0629	0.05	0.0622	0.0574	0.0631	0.0676	–	0.0601	0.0565	0.0844	–	0.0486	–
P89N	0.0689	0.069	–	0.0651	–	0.0553	0.059	0.054	0.0807	–	0.0796	0.0631	0.0623	–	–	0.0404	–	–
I110G	–	–	0.0286	0.0484	0.0591	0.0582	0.0564	0.0469	0.0574	0.0502	–	0.0501	0.0674	0.0625	–	–	–	0.0585
T132I	0.0625	0.0764	0.0704	0.0602	0.0676	0.0674	–	0.064	0.0653	0.116	–	–	0.0602	0.0804	–	–	–	0.0601
M188P	0.0642	–	0.0836	0.0784	–	0.0826	0.0582	–	–	0.0708	–	0.061	0.0657	0.0884	–	0.0776	0.065	–
P9L	0.0559	0.0858	0.062	0.0894	0.0812	0.0622	0.11	–	0.0815	0.0548	0.12	0.0722	0.0657	–	–	–	–	–
